# According to PubChem BioAssay AID504937 (National Center for Advancing Translational Sciences (NCATS), 2011):
# Out of some 340,000 compounds screened, about 20 (0.006%) were called active. The shares of active, inactive and inconclusive entries below differ from those in the screen. The call rests on the fitted dose curve; in most records, active means well fitted inhibition curve with a large enough effect; inconclusive means small, poorly fitted or top-dose-only effect; inactive means no such curve, though single readings can be large or run the other way. Potencies of inconclusive entries are doubtful fits and often do not repeat.
# Target: Sphingomyelin phosphodiesterase (Homo sapiens) (UniProt P17405)
# Assay: Inhibitors of Secretory Acid Sphingomyelinase (S-ASM): qHTS
# Settings: placental ASM, HMU-PC fluorogenic substrate (series up to 57.5 µM), 60 min; activity change, negative = inhibition: at the top concentration
# Outline: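 Steps: dispense placental human ASM, pin compound, wait 10 min at room temperature, add HMU-PC0 substrate at 9 uM final, incubate 60 min at 37 °C, add stop solution raising pH to 10, read fluorescence.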
# Potency means the concentration at half of the fitted maximal effect; tags describe the fitted curve by direction and shape.
# Sequence of UniProt P17405 (P17405 whole entry, looked up): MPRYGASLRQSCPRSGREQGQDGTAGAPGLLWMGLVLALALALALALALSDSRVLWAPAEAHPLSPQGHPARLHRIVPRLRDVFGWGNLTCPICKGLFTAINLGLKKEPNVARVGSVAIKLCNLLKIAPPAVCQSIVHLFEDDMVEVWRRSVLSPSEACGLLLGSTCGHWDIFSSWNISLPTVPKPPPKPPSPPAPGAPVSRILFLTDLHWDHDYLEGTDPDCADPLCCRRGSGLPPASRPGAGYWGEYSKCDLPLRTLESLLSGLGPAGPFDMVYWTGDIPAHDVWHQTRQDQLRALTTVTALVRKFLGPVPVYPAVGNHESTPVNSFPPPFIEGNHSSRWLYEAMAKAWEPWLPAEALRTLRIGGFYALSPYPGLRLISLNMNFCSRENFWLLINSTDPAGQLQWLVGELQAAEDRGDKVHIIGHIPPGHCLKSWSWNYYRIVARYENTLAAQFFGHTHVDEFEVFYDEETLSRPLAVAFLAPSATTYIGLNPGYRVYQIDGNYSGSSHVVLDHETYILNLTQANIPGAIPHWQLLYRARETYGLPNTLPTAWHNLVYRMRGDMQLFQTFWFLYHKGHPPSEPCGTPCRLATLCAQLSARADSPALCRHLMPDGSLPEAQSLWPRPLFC
SMILES,Potency,"activity change, negative = inhibition"
COc1ccc(C(=O)/C=C/c2ccc(O)cc2)c(O)c1C/C=C(\C)CCC=C(C)C,"inconclusive: 70.8 µM [inhibitor, partial curve]",–
Cc1sc(NC(=O)C2CCCCC2C(=O)O)c(C(N)=O)c1-c1ccc(C(C)C)cc1 (stereo unspecified),"inconclusive: 355 µM [inhibitor, partial curve, poor fit]",–
COc1cccc(-c2cc(C(F)(F)F)n3ncc(S(=O)(=O)c4ccccc4)c3n2)c1,–,inactive: 498%
Cc1ccc(SCc2ccc(C(=O)Nc3nccs3)o2)cc1,"inconclusive: 112 µM [inhibitor, partial curve, poor fit]",–
CC(Oc1ccc(Cl)cc1)c1ccnn1S(=O)(=O)c1ccc(Cl)cc1 (stereo unspecified),–,inactive: -2.5%
COc1ccccc1N1CCN(C(=O)c2ccc(COc3cccc4c3OC(C)(C)C4)cc2)CC1,–,inactive: -1.71%
CC(CCC(C)C(C)(C)C)[C@@H]1CC[C@H]2C3C[C@H](OS(O)(=S)=S)[C@H]4C[C@H](OS(O)(=S)=S)[C@@H](OS(O)(=S)=S)C[C@]4(C)[C@H]3CC[C@]12C (stereo partly specified) (tested in a mixture with another compound),"inconclusive: 28.2 µM [inhibitor, single point]",–
COc1cc(OC)cc(-c2sc3ccc(OC)cc3c2-c2ccc(OCCN3CCCCC3)cc2)c1,"inconclusive: 63.1 µM [inhibitor, partial curve, poor fit]",–
Cc1cc(C)c2c(c1)cc(C)c1nnc(SCC(=O)Nc3ccc(S(=O)(=O)N4CCCCC4)cc3)n12,–,inactive: -13.4%
C=CCN(CC=C)c1nc2ccccc2nc1C(C#N)C(=O)OCCOC (stereo unspecified),–,inactive: 174%
Cc1cc(C)c(O)c(-c2cc(C(=O)Nc3ccc(S(=O)(=O)N4CCOCC4)cc3)[nH]n2)c1,"inconclusive: 31.6 µM [inhibitor, partial curve]",–
O=C1Nc2ccccc2/C1=C/C(=O)c1cccs1,"inconclusive: 112 µM [inhibitor, partial curve, poor fit]",–
COc1cc(/C=C/c2nc(-c3ccccc3O)n[nH]2)cc(OC)c1OC,"inconclusive: 100 µM [inhibitor, single point]",–
CCCCCCCCCCCCCCC(O)C[N+](C)(CCO)CCO (stereo unspecified),"inconclusive: 70.8 µM [inhibitor, single point]",–
COc1ccc(CCNC(=O)C2CC(O)CN2S(=O)(=O)c2ccc(Cl)cc2)cc1OC (stereo unspecified),"inconclusive: 63.1 µM [inhibitor, partial curve, poor fit]",–
COc1ccc(/C=C/c2nc3ccccc3c(=O)n2-c2cccc(C(=O)O)c2)cc1,–,inactive: 33.6%
Cc1ccc(C)c(Nc2ncnc(N)c2[N+](=O)[O-])c1,–,inactive: -1.23%
CC(=O)Nc1cccc(NC(=O)Cc2nc(-c3ccccc3)sc2-c2ccc(C)cc2)c1,–,inactive: -14.6%
COc1ccc(N2CCN(C(=O)c3cc(=O)c4cc(C)c(C)cc4o3)CC2)cc1,"inconclusive: 112 µM [inhibitor, partial curve, poor fit]",–
CCc1nc2ccc(C(=O)N(C)CC(=O)Nc3ccc(Cl)c(C(F)(F)F)c3)cc2nc1CC,"inconclusive: 100 µM [inhibitor, partial curve, poor fit]",–
Cc1cc(N)c2cc(NC(=O)/C=C/c3ccccc3Cl)ccc2n1,"inconclusive: 56.2 µM [inhibitor, partial curve]",–

SMILES,Potency,"activity change, negative = inhibition"
CCOCCc1nnc(NC(=O)c2cc(OC)c(OC)c(OC)c2)s1,–,inactive: 2.25%
CCOC(=O)N1CCC(N2C(=O)c3ccccc3C2Nc2cc(OC)c(OC)c(OC)c2)CC1 (stereo unspecified),–,inactive: 10.3%
Cc1ccc(CNC(=O)Nc2ccccc2)n1C,–,inactive: -2.39%
CN1C(=O)/C(=C/c2ccccc2OCc2cccc(F)c2)NC1=S,"inconclusive: 100 µM [inhibitor, partial curve, poor fit]",–
C[C@]12c3[nH]c4cc(-c5ccco5)ccc4c3CCN1C(=O)[C@@H](CC(=O)NCc1cccc(C(F)(F)F)c1)C[C@@H]2C(=O)N1CCCCC1,"inconclusive: 79.4 µM [inhibitor, partial curve]",–
Cc1ccc(S(=O)(=O)N(CC(=O)N=Nc2c(O)[nH]c3ccccc23)c2cccc(C)c2)cc1,"inconclusive: 112 µM [inhibitor, partial curve, poor fit]",–
CCCCCCCCNc1ccccc1S(=O)(=O)NCc1ccccc1,"inconclusive: 708 µM [inhibitor, partial curve, poor fit]",–
C[C@H](CO)N1C[C@H](C)[C@H](CN(C)Cc2ccc(Oc3ccccc3)cc2)Oc2ccc(NC(=O)Nc3cccc4ccccc34)cc2CC1=O,"inconclusive: 100 µM [inhibitor, partial curve, poor fit]",–
Cc1nc(Nc2ccc(Cl)c(Cl)c2)sc1C(=O)Nc1ccccc1,"inconclusive: 79.4 µM [inhibitor, single point]",–
O=C(CNc1ccccc1)N/N=C/c1cc([N+](=O)[O-])ccc1N1CCCC1,"inconclusive: 1000 µM [inhibitor, partial curve, poor fit]",–
COc1ccc(/C=N/Nc2ncnc3sc4c(c23)CCCC4)cc1O,"inconclusive: 355 µM [inhibitor, partial curve, poor fit]",–
CCc1cc(C(=O)c2ccc(Br)cc2)c(NC(=O)CN(CC)CC)s1,"inconclusive: 3160 µM [inhibitor, partial curve, poor fit]",–
O=C(Nc1cc([N+](=O)[O-])ccc1N1CCCC1)c1cccs1,"inconclusive: 316 µM [inhibitor, partial curve, poor fit]",–
O=C1CCCN1CCCN=c1c([N+](=O)[O-])nn(-c2ccc(Cl)cc2)n1O,–,inactive: -5.96%
COc1ccc(CNc2nc3c(c(=O)n(Cc4ccc(Br)cc4)c(=O)n3C)n2C)cc1,"inconclusive: 89.1 µM [inhibitor, single point]",–
COC(=O)c1ccccc1NC(=O)CSc1nnc(Cc2ccc(Cl)cc2)o1,–,inactive: -7.25%
O=C(O/C(=C/c1ccccc1)C(F)(F)F)c1ccccc1,–,inactive: -0.695%
COc1cc2nc(SCc3ccc(F)cc3)n(Cc3cccs3)c(=N)c2cc1OC,"inconclusive: 89.1 µM [inhibitor, single point]",–
COc1cc(/C=C2/SC(=S)N(CC(=O)Nc3cccnc3)C2=O)cc(OC)c1OC,"inconclusive: 44.7 µM [inhibitor, partial curve, poor fit]",–
COc1ccc(N2CCN(Cc3nc(N)nc(Nc4ccc(C)c(Cl)c4)n3)CC2)cc1,"inconclusive: 79.4 µM [inhibitor, partial curve]",–
CCOC(=O)CSC1=C(C#N)C(c2ccc(Cl)cc2)C(C(=O)OC)C(=O)N1 (stereo unspecified),–,inactive: -0.674%

SMILES,Potency,"activity change, negative = inhibition"
CCN(CC(=O)NCc1ccc(F)cc1)Cc1nc2ccccc2c(=O)[nH]1,–,inactive: -1.65%
O=C(NC(=S)Nc1ccccn1)c1ccco1,–,inactive: 0.143%
Cc1ccc(-n2c(SCC(=O)N/N=C/c3ccc(C)s3)nnc2-c2ccccc2)cc1,–,inactive: -20%
CC(=O)c1c(C)[nH]c(C(=O)Nc2ccc(C)c(S(=O)(=O)Nc3ccc(C)cc3C)c2)c1C,"inconclusive: 79.4 µM [inhibitor, partial curve, poor fit]",–
COc1ccc(-c2n[nH]c3c2C(c2ccc(OC)c(OC)c2)N(c2ccccc2)C3=O)cc1 (stereo unspecified),"inconclusive: 100 µM [inhibitor, partial curve, poor fit]",–
N#Cc1c(-c2ccc3c(c2)OCO3)csc1N,–,inactive: 2.44%
O=C(OCc1c(Cl)cccc1Cl)c1ccncc1,–,inactive: -0.614%
COc1ccc(-c2noc(N3CCC(C(=O)Nc4cccc(OC)c4)CC3)n2)cc1,"inconclusive: 89.1 µM [inhibitor, single point]",–
COc1ccc(OC(C)C(=O)Nc2ccc([N+](=O)[O-])cc2)cc1 (stereo unspecified),–,inactive: 1.7%
CCOC(=O)c1c(NC(=O)CN2C(=O)NC(C)(c3ccc(OC(F)F)cc3)C2=O)sc(C)c1C (stereo unspecified),"inconclusive: 355 µM [inhibitor, partial curve, poor fit]",–
COc1cc(/C=N/NC(=O)C(Cc2c[nH]c3ccccc23)NC(=O)OCc2ccccc2)cc([N+](=O)[O-])c1O (stereo unspecified),"inconclusive: 70.8 µM [inhibitor, partial curve, poor fit]",–
O=c1cc(-c2ccccc2)cc(-c2ccccc2)n1O,–,inactive: -8.09%
Cc1ccc(/C=N/NC(=O)c2nnn(-c3nonc3N)c2CN(C)c2ccccc2)s1,"inconclusive: 355 µM [inhibitor, partial curve, poor fit]",–
CNC(=S)N/N=C/c1ccc(-c2cccc(C(=O)O)c2)o1,–,inactive: 50.8%
C#CCOCCOCCOCCNc1nc(N2CCN(C(=O)CCCCCCCCCCNC(=O)[C@@H](CCC(=O)O)n3cc(CCCCCN)nn3)CC2)nc(N2CCN(C(=O)CCCCCCCCCCNC(=O)[C@H](CCCCN)n3cc(C[C@@H](C)CC)nn3)CC2)n1,"inconclusive: 100 µM [inhibitor, partial curve, poor fit]",–
COc1ccccc1NS(=O)(=O)c1cc(NC(=O)c2cc(=O)[nH]c3ccccc23)ccc1N1CCOCC1,"inconclusive: 178 µM [inhibitor, partial curve, poor fit]",–
Cc1ccc(N=C2NC(=O)/C(=C\c3cccs3)S2)cc1C,"inconclusive: 200 µM [inhibitor, partial curve, poor fit]",–
COc1cccc(-c2sc3ccccc3c2-c2ccc(OCCN3CCCCC3)cc2)c1,"inconclusive: 63.1 µM [inhibitor, partial curve, poor fit]",–
CCCCCc1cc(=O)oc2c(C(CCN3CCN(c4ccccc4)CC3)c3ccc4c(c3)OCO4)c(OC)cc(OC)c12 (stereo unspecified),"inconclusive: 79.4 µM [inhibitor, partial curve, poor fit]",–
